Results are given in words; binding and its absence hold for the method and conditions named. Binding seen in cells or lysates may run through a third protein. Some results given as binding are weak or reduced against the parent protein; the word gives no strength. For some assays here: Where a sequence is shown, tags or fusion partners need not be part of it.
Key:
Assay in all cases: split reporter; BiFC: nYFP and cYFP fusions coexpressed in N. benthamiana leaves by Agrobacterium infiltration; YFP fluorescence 50 h after infiltration, plants at 24°C
[1] = target: MYC2 (BiFC fusion) (Arabidopsis thaliana) (UniProt Q39204)
[2] = target: T1, JAZ1-nYFP (Arabidopsis thaliana) (UniProt Q9LMA8)
T1 sequence: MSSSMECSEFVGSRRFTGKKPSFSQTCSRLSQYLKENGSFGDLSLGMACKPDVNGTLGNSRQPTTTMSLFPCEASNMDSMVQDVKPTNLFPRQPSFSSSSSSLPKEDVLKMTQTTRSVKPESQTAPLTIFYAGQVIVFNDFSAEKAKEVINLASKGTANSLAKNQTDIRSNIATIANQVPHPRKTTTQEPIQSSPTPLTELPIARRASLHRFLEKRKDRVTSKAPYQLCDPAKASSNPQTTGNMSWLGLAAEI

Chains of the proteins cited; added tags and fusions are not shown.
UniProt Q39204: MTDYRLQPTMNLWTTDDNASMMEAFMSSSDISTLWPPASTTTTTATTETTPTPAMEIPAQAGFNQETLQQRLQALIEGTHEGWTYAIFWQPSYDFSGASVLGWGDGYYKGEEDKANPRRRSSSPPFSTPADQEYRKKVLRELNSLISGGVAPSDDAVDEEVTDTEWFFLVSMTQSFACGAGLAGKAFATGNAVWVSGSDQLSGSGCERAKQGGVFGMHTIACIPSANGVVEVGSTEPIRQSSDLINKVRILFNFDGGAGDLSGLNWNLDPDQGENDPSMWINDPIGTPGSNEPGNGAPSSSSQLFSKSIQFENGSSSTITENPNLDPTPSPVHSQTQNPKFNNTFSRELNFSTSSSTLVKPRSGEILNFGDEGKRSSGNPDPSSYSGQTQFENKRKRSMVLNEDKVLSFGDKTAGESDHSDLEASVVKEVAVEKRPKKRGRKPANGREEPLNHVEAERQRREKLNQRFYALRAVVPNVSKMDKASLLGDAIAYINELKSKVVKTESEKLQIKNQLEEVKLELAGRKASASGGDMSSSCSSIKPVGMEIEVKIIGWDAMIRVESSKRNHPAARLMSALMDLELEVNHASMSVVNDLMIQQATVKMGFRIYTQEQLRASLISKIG
UniProt Q93ZM9: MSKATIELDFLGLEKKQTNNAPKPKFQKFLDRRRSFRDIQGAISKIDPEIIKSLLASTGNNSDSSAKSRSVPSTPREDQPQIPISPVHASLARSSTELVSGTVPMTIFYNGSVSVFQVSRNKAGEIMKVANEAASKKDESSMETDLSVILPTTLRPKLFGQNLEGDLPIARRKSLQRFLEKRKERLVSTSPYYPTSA
UniProt Q9FIP9: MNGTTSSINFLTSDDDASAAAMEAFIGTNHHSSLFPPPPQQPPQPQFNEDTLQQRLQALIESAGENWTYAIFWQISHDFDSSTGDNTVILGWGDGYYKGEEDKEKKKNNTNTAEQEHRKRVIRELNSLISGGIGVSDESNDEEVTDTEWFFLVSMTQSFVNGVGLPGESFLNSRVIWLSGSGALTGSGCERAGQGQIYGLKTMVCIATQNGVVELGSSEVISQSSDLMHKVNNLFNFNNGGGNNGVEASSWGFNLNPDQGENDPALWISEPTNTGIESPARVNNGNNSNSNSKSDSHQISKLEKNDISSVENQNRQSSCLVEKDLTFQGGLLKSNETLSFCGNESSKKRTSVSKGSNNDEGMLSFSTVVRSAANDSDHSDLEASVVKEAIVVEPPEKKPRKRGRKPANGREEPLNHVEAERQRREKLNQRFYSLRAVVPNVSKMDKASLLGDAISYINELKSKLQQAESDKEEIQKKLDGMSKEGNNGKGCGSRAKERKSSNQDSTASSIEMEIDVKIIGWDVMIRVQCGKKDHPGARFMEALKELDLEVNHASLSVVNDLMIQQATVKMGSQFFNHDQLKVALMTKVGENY
UniProt O49687: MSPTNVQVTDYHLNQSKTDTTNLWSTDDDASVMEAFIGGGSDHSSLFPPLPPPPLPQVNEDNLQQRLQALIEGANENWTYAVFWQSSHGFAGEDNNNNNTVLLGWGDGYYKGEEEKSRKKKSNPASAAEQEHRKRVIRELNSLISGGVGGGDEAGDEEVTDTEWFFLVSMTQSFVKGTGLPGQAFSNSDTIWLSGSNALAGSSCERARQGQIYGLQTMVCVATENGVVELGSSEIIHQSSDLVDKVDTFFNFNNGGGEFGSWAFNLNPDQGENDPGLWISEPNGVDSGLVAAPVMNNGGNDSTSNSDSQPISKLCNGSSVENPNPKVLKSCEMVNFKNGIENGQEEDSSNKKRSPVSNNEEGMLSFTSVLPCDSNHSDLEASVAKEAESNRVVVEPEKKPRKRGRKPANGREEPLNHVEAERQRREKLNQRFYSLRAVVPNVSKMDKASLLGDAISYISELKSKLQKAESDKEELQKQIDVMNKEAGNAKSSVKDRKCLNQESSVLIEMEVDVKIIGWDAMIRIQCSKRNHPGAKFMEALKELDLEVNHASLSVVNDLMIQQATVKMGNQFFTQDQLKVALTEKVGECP
UniProt Q9ZPY8: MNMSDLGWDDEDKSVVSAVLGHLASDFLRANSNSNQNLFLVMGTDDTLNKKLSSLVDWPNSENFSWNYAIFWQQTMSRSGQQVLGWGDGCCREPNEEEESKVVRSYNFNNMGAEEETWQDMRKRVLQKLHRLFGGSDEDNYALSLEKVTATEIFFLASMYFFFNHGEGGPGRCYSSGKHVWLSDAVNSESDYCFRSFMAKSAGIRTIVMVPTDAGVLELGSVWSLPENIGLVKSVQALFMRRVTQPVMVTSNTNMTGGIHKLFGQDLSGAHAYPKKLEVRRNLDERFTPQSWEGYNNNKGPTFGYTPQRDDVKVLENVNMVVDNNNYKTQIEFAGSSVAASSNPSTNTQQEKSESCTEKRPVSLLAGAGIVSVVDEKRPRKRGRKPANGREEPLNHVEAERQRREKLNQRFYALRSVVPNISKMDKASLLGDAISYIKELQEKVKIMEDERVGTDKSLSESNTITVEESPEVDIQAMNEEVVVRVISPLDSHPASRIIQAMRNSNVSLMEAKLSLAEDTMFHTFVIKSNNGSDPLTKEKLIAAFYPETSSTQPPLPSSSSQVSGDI
UniProt O23487: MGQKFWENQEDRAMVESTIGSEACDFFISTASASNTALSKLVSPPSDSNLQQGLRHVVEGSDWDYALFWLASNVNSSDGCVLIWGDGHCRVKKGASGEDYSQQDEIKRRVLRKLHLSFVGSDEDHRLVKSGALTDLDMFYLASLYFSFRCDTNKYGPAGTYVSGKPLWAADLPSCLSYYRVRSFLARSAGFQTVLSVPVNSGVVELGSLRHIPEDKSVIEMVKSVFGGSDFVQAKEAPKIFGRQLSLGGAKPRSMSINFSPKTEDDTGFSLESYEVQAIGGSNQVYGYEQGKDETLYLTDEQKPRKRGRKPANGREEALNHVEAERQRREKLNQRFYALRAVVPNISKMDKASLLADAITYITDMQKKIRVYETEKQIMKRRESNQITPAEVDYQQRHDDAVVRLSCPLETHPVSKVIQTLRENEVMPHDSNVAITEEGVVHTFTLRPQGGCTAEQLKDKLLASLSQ
UniProt Q9LNJ5: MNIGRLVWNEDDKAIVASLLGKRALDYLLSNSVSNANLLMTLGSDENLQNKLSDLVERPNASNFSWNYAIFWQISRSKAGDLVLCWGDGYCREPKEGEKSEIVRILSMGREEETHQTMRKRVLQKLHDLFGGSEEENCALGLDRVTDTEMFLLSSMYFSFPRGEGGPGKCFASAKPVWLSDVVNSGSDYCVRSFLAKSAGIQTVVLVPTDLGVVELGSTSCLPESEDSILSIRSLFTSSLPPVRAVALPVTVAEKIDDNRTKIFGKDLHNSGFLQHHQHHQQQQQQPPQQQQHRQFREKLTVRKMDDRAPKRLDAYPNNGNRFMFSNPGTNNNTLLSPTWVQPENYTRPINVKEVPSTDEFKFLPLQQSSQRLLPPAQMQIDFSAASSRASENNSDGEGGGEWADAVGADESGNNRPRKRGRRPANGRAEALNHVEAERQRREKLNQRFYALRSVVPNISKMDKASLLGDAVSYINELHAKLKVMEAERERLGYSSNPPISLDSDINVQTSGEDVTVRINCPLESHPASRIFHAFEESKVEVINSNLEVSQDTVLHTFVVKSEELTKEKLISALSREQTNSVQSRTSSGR

[3] = target: T2, TT8 (BiFC fusion) (Arabidopsis thaliana) (UniProt Q9FT81)
T2 sequence: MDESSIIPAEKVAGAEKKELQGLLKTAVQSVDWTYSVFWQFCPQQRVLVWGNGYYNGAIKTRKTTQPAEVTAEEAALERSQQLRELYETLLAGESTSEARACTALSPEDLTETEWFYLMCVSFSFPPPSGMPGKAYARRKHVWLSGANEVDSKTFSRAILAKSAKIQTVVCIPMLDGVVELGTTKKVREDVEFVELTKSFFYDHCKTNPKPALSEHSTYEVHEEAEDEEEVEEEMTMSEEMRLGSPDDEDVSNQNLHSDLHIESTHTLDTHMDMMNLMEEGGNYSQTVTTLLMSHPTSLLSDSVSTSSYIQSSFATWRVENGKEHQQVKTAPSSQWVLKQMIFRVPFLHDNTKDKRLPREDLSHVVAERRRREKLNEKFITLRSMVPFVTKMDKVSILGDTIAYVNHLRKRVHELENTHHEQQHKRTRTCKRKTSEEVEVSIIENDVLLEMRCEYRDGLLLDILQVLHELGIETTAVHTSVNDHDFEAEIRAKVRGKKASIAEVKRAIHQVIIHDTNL

[4] = target: JAZ10 (fused with nYFP) (Arabidopsis thaliana) (UniProt Q93ZM9)
[5] = target: MYC3 (BiFC fusion) (Arabidopsis thaliana) (UniProt Q9FIP9)
[6] = target: T3, MYB75 (BiFC fusion) (Arabidopsis thaliana) (UniProt Q9FE25)
T3 sequence: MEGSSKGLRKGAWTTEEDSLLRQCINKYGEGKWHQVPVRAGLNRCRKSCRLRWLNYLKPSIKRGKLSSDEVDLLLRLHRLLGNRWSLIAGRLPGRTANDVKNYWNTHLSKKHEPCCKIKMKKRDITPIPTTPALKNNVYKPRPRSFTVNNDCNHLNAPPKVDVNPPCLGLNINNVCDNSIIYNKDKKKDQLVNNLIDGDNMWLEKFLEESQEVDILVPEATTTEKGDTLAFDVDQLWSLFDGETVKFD

[7] = target: T4, GL3 (BiFC fusion) (Arabidopsis thaliana) (UniProt Q9FN69)
T4 sequence: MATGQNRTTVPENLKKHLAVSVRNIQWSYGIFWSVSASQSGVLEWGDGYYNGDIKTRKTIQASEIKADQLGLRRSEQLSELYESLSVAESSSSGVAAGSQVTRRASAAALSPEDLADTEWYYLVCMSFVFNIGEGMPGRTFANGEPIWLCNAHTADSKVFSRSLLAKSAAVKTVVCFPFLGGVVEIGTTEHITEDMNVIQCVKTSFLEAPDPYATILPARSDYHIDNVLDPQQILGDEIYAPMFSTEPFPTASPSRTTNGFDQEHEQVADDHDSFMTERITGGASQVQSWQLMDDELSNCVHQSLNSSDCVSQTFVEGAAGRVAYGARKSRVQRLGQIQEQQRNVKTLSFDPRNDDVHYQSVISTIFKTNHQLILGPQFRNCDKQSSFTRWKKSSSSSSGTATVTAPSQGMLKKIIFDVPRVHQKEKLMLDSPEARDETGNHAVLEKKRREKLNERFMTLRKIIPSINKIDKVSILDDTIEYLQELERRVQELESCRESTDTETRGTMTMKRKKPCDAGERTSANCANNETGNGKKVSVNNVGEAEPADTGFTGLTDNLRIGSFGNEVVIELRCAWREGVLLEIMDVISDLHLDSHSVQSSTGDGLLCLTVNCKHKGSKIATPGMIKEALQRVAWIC

[8] = target: T5, GL1 (BiFC fusion) (Arabidopsis thaliana) (UniProt P27900)
T5 sequence: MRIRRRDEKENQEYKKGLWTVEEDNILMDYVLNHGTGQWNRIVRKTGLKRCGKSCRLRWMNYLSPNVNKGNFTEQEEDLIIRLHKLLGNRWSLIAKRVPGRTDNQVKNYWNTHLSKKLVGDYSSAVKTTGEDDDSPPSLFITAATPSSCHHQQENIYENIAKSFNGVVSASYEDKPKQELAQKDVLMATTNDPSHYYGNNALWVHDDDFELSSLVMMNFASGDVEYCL

[9] = target: MYC4 (BiFC fusion) (Arabidopsis thaliana) (UniProt O49687)
[10] = target: T6, EGL3 (BiFC fusion) (Arabidopsis thaliana) (UniProt Q9CAD0)
T6 sequence: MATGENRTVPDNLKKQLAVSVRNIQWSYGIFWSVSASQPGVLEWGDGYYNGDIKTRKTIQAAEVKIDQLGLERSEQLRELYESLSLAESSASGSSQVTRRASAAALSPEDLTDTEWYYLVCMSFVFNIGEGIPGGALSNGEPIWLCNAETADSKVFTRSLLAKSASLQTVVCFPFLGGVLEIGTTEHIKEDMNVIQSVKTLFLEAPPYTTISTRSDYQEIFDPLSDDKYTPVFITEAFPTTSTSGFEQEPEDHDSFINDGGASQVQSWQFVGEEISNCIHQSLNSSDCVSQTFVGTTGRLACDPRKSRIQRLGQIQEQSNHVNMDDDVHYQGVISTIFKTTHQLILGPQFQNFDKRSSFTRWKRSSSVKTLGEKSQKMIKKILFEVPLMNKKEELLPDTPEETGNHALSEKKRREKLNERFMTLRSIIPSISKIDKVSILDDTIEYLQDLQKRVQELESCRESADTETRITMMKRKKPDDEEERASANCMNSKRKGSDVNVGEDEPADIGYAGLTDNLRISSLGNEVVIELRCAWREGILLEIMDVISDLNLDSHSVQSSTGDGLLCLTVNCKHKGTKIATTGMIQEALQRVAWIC

| Substance | binding [1] | binding [2] | binding [3] | binding [4] | binding [5] | binding [6] | binding [7] | binding [8] | binding [9] | binding [10] |
| --- | --- | --- | --- | --- | --- | --- | --- | --- | --- | --- |
| cYFP-bHLH17 (from UniProt Q9ZPY8 1-566) | no binding | binds | no binding | binds | no binding | no binding | no binding | no binding | no binding | no binding |
| cYFP-bHLH3 (from UniProt O23487 1-467) | no binding | binds | no binding | – | no binding | no binding | no binding | no binding | no binding | no binding |
| cYFP-bHLH13 (from UniProt Q9LNJ5 1-590) | no binding | binds | no binding | binds | no binding | no binding | no binding | no binding | no binding | no binding |

Reference: article PMC3723532
